Assay results: PubChem BioAssay (NCATS)
Inconclusive means that the source gave no clear call. Such entries were picked first, then a sample of the others. For part of these data: A potency beside an inconclusive call is a rough fit, not a confirmed value. Calls of active or inactive are those of the source. Calls follow the shape of the dose curve; as a rule, active = well fitted curve in the direction sought with a large enough effect; inconclusive = small, poorly fitted or top-dose-only effect, or another doubt; inactive = no such curve, though single readings can be large; an effect the other way counts as inactive or inconclusive.

How the values were obtained:
[1] = UWB1.289 Cancer Cell Toxicity qHTS against the NCATS CANVASS Library (AID 1347347); also: nearly all actives have a fitted effect of over 60% in size
Method in brief: (§1)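 1000 cells/well; 4 h settle; 11-pnt titration; 72 h, 37 degrees C, 5% CO2; CellTiter-Glo, 15min RT; luminescence read.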

[2] = Panc-1005 Cancer Cell Toxicity qHTS against the NCATS CANVASS Library (AID 1347349); also: nearly all actives have a fitted effect of over 60% in size; also: potency is read from the fitted curve at half-maximal effect
Method in brief: as §1

[3] = U-118MG Cancer Cell Toxicity qHTS against the NCATS CANVASS Library (AID 1347351)
Method in brief: as §1

[4] = COV-362 Cancer Cell Toxicity qHTS against the NCATS CANVASS Library (AID 1347352)
Method in brief: (§2)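 qHTS cytotoxicity: compounds tested in 11 concentrations on 1000 seeded cells per well over 72 h; bortezomib served as control; signal from CellTiter-Glo luminescence.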

[5] = HEK-293 Cancer Cell Toxicity qHTS against the NCATS CANVASS Library (AID 1347355); also: nearly all actives have a fitted effect of over 65% in size; also: potency is read from the fitted curve at half-maximal effect
Method in brief: as §2

[6] = test system: NAD(P)H diaphorase (Clostridium kluyveri); assay: Diaphorse counterscreen qHTS: Assay Interference Panel against the NCATS CANVASS Library (AID 1347362)
Method in brief: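 Counterscreen for coupling-enzyme interference: resorufin fluorescence from resazurin/NADH turnover, read after 5 min at room temperature. Compounds were tested over an 11-point series after 15 min dark preincubation with diaphorase in PBS-Tween.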

[7] = SDT Cancer Cell Toxicity qHTS against the NCATS CANVASS Library (AID 1347365); also: potency is read from the fitted curve at half-maximal effect; nearly all actives have a fitted effect of over 60% in size
Method in brief: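 Dispense 500 SDT cells per well; pin-transfer compounds; incubate 72 hr at 37C, 5% CO2, 95% RH; add CellTiterGlo and read luminescence.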

[8] = G06 Cancer Cell Toxicity qHTS against the NCATS CANVASS Library (AID 1347368); also: nearly all actives have a fitted effect of over 60% in size; also: potency is read from the fitted curve at half-maximal effect
Method in brief: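 Cytotoxicity toward canine glioma G06 cells is scored from cellular ATP via luminescence after 72 hr compound exposure at 500 cells/well.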

[9] = MCF7 Cancer Cell Toxicity qHTS against the NCATS CANVASS Library (AID 1347369); settings: activity change, negative = cytotoxicity: at 46 µM (top of the series)
Method in brief: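 Cells seeded at 500/well, then compound pinned. Plates incubated 72 hr at 37C, 5% CO2. CellTiterGlo added; luminescence read.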

[10] = qHTS for Hypoxia signaling pathway (HIF-1) antagonists against the NCATS CANVASS Library (AID 1347374)
Method in brief: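 HRE-bla ME-180 cells (2,000/well, 0.5% dialyzed FBS) were pre-incubated 5 h, then given an 11-point compound series plus CoCl2 (60 uM solution as added) for 17 h at 37C. CCF4 β-lactamase read (ex 405, em 460/530 nm) after 2 h at RT.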

[11] = qHTS for Hypoxia signaling pathway (HIF-1) agonists against the NCATS CANVASS Library (AID 1347375); also: potency is read from the fitted curve at half-maximal effect
Method in brief: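 Inducers of HIF-1 signaling were detected in ME-180 cells bearing an HRE-driven beta-lactamase reporter after 17 h compound exposure. Activity came from CCF4-AM FRET emission ratio (460/530 nm) in qHTS format.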

[12] = qHTS for Activators of p53 Stress Response Pathway screened against the NCATS CANVASS Library (AID 1347388); also: potency is read from the fitted curve at half-maximal effect
Method in brief: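 Beta-lactamase reporter driven by p53 response elements in HCT-116 cells, read as the 460 nm/530 nm emission ratio after CCF4 loading, following 16 h of exposure to an 11-point series. Cell viability was measured in the same wells by CellTiter-Glo luminescence.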

[13] = qHTS assay for small molecule disruptors of mitochondrial membrane potential screened against the NCATS CANVASS Library (AID 1347389); also: nearly all actives have a fitted effect of over 60% in size; also: potency is read from the fitted curve at half-maximal effect
Method in brief: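 Compounds tested in 11-point qHTS series on HepG2 cells for 1 hr; membrane-potential dye added for 30 min at 37C. Lower red-to-green ratio indicates loss of potential.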

[14] = Secretion counterscreen for inhibitors of the SERCaMP assay screened against the NCATS CANVASS Library (AID 1347390); settings: SH-SY5Y constitutive GLuc secretion, luminescence, 20 h; activity change, negative = inhibition: at 76.6 µM (top of the series);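 also: light from luciferase secreted into medium read as a measure of general secretion; potency is read from the fitted curve at half-maximal effect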
Method in brief: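 SH-SY5Y-GLuc STOP cells; 4 h attach; cpds 0.001 - 77 uM (qHTS, 11 pts), 20 h 37C/5% CO2; coelenterazine in glow buffer; luminescence, 5 s exposure.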

[15] = qHTS for inhibitors of ER calcium dysfunction: SERCaMP assay screened against the NCATS CANVASS Library (AID 1347393); settings: SH-SY5Y GLuc-SERCaMP (Gaussia luciferase released on ER calcium loss) secretion, thapsigargin, luminescence; activity change, negative = inhibition: at 76.6 µM (top of the series) unless noted; also: potency is read from the fitted curve at half-maximal effect; nearly all actives have a fitted effect of over 40% in size
Method in brief: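 Thapsigargin-induced ER calcium depletion drives GLuc-SERCaMP secretion from SH-SY5Y cells; compounds given 16 h beforehand were scored by lowered coelenterazine luminescence after 4 h challenge.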

[16] = Vero-766 cells viability qHTS against the NCATS CANVASS Library: Counterscreen for Zika virus inhibition assay (AID 1347394); settings: Vero 766 viability, CellTiter-Glo luminescence, 72 h; activity change, negative = cytotoxic: at 46.1 µM (top of the series); also: nearly all actives have a fitted effect of over 60% in size
Method in brief: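 Vero 766, no virus; 1000 cells/well; o/n attach; cpd 11-pt; 72 h, 37C, 5% CO2; CTG luminescence; cell-free media wells = 100% inhibition.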

[17] = Redox Reaction Profiling qHTS: Assay Interference Panel against the NCATS CANVASS Library (AID 1347401); also: potency is read from the fitted curve at half-maximal effect
Method in brief: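 Cell-free redox surrogate: 5 uM resazurin + 200 uM DTT, 50 mM HEPES pH 7.3/50 mM NaCl; cpds pinned, 11-pt qHTS; Ex525/Em598 read t0 and t=15 min, dark.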

[18] = SW1088 Cancer Cell Toxicity qHTS against the NCATS CANVASS Library (AID 1347350); also: nearly all actives have a fitted effect of over 75% in size
Method in brief: as §1

[19] = target: Luciferin 4-monooxygenase (Photinus pyralis) (UniProt P08659); assay: Firefly luciferase counterscreen qHTS: Assay Interference Panel against the NCATS CANVASS Library (AID 1347363)
Sequence of UniProt P08659 (P08659 whole entry, looked up): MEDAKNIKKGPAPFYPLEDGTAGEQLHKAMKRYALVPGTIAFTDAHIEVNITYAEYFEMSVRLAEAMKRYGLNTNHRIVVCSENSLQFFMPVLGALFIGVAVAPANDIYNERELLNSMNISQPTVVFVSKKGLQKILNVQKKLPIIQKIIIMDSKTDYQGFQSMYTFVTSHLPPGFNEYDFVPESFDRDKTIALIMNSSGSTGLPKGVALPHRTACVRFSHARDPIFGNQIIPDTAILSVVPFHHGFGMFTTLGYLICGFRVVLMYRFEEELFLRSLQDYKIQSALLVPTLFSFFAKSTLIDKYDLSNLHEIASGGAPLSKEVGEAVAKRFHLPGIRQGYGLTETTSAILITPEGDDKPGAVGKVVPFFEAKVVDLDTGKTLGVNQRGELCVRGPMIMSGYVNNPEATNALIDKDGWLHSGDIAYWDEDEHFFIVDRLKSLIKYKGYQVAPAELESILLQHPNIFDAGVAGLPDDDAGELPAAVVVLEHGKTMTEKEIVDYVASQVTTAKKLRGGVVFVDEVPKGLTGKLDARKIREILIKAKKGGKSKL
Method in brief: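 Luminescence inhibition readout: compounds (11-point qHTS) sat 15 min at room temperature with substrate mix (0.013 mM luciferin and ATP), then firefly luciferase was added and signal read 5 min later.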

[20] = target: Nuclear receptor subfamily 1 group I member 3 (Homo sapiens) (UniProt Q14994); assay: qHTS for Constitutive Androstane Receptor (CAR) Antagonist screened against the NCATS CANVASS Library (AID 1347372);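 also: cells stimulated with 50 nM CITCO agonist so inhibition reflects antagonism; luciferase from CYP2B6 promoter reporter driven by hCAR in HepG2 cells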
Sequence of UniProt Q14994 (Q14994 whole entry, looked up): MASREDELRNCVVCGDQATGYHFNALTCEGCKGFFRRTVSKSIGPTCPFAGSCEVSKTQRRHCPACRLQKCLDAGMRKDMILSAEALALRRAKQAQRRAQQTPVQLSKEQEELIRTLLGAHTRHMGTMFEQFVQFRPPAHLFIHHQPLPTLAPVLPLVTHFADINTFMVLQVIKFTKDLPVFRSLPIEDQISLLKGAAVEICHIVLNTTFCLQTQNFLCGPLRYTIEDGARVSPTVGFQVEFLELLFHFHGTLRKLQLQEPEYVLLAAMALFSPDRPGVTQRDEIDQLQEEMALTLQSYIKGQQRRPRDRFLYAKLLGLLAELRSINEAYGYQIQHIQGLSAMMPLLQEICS
Method in brief: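 HepG2-CYP2B6-hCAR double-stable cells plated, 4hr attach; cpd pin-transferred; CITCO 50 nM final; 24hr 37C/5% CO2; CellTiter-Fluor 1hr (fluorescence), then ONE-Glo luminescence.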

[21] = qHTS for Inflammasome Signaling Inhibitors: IL-1-beta AlphaLISA screen against the NCATS CANVASS Library (AID 1347379);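 also: human THP-1 cells primed with LPS then triggered with ATP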
Method in brief: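 Human THP-1 cells were pretreated 1 hr at 37 °C with compounds (up to 57.5 uM final), then stimulated with LPS (250 ng/mL final) and ATP (1.25 mM final). Secreted IL-1B was read by AlphaLISA after 16 hr.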

[22] = qHTS for Antimalaria activity screened against the NCATS CANVASS Library (AID 1347380); also: nearly all actives have a fitted effect of over 40% in size; also: potency is read from the fitted curve at half-maximal effect;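 as to activity change, negative = inhibition: Plasmodium falciparum strain Dd2 asexual parasites grown in red blood cells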
Method in brief: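 Growth inhibition of asexual erythrocytic P. falciparum Dd2 was quantified by SYBR Green DNA staining. Cultures grew 72 h with compound (11-point series) in hypoxic gas at 37C; lysis and staining lasted 18 h.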

[23] = qHTS for activators of Nrf2/ARE signaling pathway screened against the NCATS CANVASS Library (AID 1347391); also: nearly all actives have a fitted effect of over 60% in size
Method in brief: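 Cells carrying an ARE-driven beta-lactamase reporter (HepG2 background) are dosed for 16 h, then stained with CCF4. Cell viability in the same wells is measured by CellTiter-Glo luminescence.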

[24] = qHTS for inhibitors of Wild type Zika virus screened against the NCATS CANVASS Library (AID 1347396);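 also: ATP luminescence of surviving cells so rescue from viral cell killing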
Method in brief: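 Luminescent CellTiter Glo read-out of virus-induced cytotoxicity, 72 h post-infection, in Vero 766 cells. Compounds were tested at 11 concentrations; uninfected, vehicle-treated wells defined 100% inhibition.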

[25] = Viability qHTS for inhibitors of the SERCaMP assay screened against the NCATS CANVASS Library (AID 1347400); also: nearly all actives have a fitted effect of over 70% in size
Method in brief: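 Cytotoxicity counter-screen: ATP content (CellTiter-Glo luminescence) of SH-SY5Y-GLuc SERCaMP MJH297 cells after 48 h at 37C with compounds in an 11-point qHTS series.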

[26] = HPAF-II 12hr Apoptosis Induction qHTS against the NCATS CANVASS Library (AID 1347358)
Method in brief: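 Apoptosis in HPAF-II pancreatic cancer cells is scored as caspase 3/7 luminescence following a 12-hour exposure to an 11-point compound series.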

[27] = KB-3-1 Cancer Cell Toxicity qHTS against the NCATS CANVASS Library (AID 1347366); also: nearly all actives have a fitted effect of over 75% in size
Method in brief: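 Luminescence from CellTiter-Glo (10 min, room temperature) measured KB-3-1 viability after 72 hr compound exposure at 37C. Cells were seeded at 500/well and tested in an 11-point series.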

[28] = qHTS for activators of dead-cell proteases activity screened against the NCATS CANVASS Library (AID 1347392);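 also: luminescence from protease leaking out of membrane-damaged cells cleaving impermeant substrate; rising signal means more cytotoxicity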
Method in brief: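 Compounds are pin-transferred onto attached HepG2 cells, giving 11 final concentrations. After 5 h at 37C, AAF-aminoluciferin reagent is added and luminescence is recorded at room temperature.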

Measured: Potency
Tags tell the direction and shape of the fitted curve.

C=C(NC(=O)c1csc(-c2nc3c(cc2O)-c2nc(cs2)C(=O)NC(C(C)O)C(=O)N/C(=C(\C)O)c2nc(cs2)C(=O)NC2c4nc(cs4)C(=O)NC(COC(=O)c4c5c6c(cccc6n4O)COC(=O)[C@@H](OC4C[C@](C)(O)[C@H](N(C)C)[C@H](C)O4)C2OC5)c2nc-3cs2)n1)C(N)=O (some centres undefined)
inconclusive: [5] 33.2 µM [cytotoxic, partial curve, poor fit] | [7] 33.2 µM [cytotoxic, single point] | [8] 29.6 µM [cytotoxic, single point] | [11] 16.7 µM [activator, partial curve, poor fit] | [12] 18.6 µM [activator, partial curve, poor fit] | [13] 3.71 µM [inhibitor, full curve] | [14] 0.0097 µM [inhibitor, full curve] | [15] 34.3 µM [inhibitor, partial curve, poor fit] | [17] 15.2 µM [activator, partial curve]
inactive: [1] | [2] | [3] | [4] | [6] | [9] | [10] | [16]

C=C1C[C@@]23C=CC(=O)[C@@](C)(CCC(=O)Nc4c(O)ccc(C(=O)O)c4O)C2C[C@@H]1CC3O (some centres undefined)
inactive: [1] | [18] | [19] | [20] | [21] | [22] | [13] | [23] | [24] | [25]
inconclusive: [2] 29.8 µM [cytotoxic, single point]

O=C(O)[C@@]12CO[C@@]3(O)C4CCN(CC[C@H]31)[C@H]4c1c2[nH]c2ccccc12
inactive: [18] | [5] | [26]
inconclusive: [22] 0.0037 µM [cytotoxic, full curve, poor fit]

O=Cc1ccc2n1C[C@@]1(OC2)O[C@H](CO)[C@@H](O)[C@@H]1O
inactive: [4] | [27] | [8] | [22] | [23] | [28] | [16]
